Results as given in PMC4336329 (PLoS ONE, 2015).
In all, about 310,000 compounds went through this assay and about 14,000 (4.5%) showed an effect of 50% or more. The effect is printed as a negative number. Some of the results follow.

molecular target: human ether-à-go-go-related gene (hERG) potassium channel (human, UniProt Q12809); experiment: primary screen, population patch clamp on CHO cells stably expressing hERG
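Further: peak tail current of the secondary pulse compared with the same well before compound.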

Chain of human ether-à-go-go-related gene (hERG) potassium channel (Q12809 whole entry, looked up): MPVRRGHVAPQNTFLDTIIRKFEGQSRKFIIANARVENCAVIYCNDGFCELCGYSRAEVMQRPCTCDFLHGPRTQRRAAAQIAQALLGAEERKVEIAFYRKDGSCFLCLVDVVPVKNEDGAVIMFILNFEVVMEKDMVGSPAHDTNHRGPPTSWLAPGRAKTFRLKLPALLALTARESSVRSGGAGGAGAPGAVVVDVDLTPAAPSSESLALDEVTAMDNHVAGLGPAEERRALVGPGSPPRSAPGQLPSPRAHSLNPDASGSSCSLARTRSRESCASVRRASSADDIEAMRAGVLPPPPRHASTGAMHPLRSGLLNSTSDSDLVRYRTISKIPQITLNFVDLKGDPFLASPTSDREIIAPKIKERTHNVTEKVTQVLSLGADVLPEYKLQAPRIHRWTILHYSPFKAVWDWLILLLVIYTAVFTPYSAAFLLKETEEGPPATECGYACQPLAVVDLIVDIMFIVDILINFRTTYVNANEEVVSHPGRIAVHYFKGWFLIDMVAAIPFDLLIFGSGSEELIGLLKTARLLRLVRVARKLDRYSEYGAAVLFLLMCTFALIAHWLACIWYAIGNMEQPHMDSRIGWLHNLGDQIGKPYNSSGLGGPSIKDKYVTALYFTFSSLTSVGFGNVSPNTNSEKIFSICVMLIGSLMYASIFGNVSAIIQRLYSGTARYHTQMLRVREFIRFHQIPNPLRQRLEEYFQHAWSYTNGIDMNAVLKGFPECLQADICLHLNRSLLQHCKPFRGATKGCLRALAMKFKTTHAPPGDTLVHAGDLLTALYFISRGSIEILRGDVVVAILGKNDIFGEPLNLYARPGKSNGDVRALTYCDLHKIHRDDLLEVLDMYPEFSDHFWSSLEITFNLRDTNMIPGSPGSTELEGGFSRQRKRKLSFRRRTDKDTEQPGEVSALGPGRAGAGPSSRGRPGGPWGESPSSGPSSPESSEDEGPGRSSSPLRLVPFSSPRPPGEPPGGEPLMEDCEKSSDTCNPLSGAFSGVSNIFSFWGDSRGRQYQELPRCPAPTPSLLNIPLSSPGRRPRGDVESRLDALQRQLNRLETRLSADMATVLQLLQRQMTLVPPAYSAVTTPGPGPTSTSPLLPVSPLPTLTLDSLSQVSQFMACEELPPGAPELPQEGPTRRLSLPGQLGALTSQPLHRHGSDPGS

| SMILES | hERG current change (%, negative = inhibition) at 10uM [%] |
| --- | --- |
| O=C(CCNC(=O)c1ccccc1Cl)Nc1nc(-c2ccccc2Cl)cs1 | -7.92 |
| Cc1ccc(-c2cnc3n2CCCCC3)cc1 | -29.7 |
| CC(=O)Nc1ccc(NC(=O)C(C)OC(=O)C(C)SCC(=O)Nc2ccc(C)cc2)cc1 (stereo not drawn) | 8.63 |
| C/C(=N\NC(=O)C1(C)CC1(Br)Br)c1cccc(NC(=O)c2ccc(C)o2)c1 (stereo not drawn) | -12.9 |
| Cc1ccc(C(=O)OCC(=O)N2CCOCC2)cc1 | 15.6 |
| O=C1/C(=C\c2ccncc2)SC(=S)N1C1CCCCC1 | -0.179 |
| COc1cc(-c2nnc3sc(-c4cccs4)nn23)cc(OC)c1OC | 3.99 |
| O=C(CSc1nc(O)c(-c2ccccc2)c(=O)[nH]1)N1CCOCC1 | 1.52 |
| COc1ccc(NC(=O)C(=O)NNC(=O)C(C)Oc2ccc(Cl)cc2Cl)cc1 (stereo not drawn) | 19 |
| CC(=O)c1ccccc1NC(=O)COC(=O)CCCN1C(=O)c2cccc3cccc(c23)C1=O | 7.06 |
| COc1cc(/C=N/NS(=O)(=O)c2ccc(C)cc2)ccc1OCc1cccc(C(=O)O)c1 | 21.2 |
| CN(C)S(=O)(=O)n1cc(/C=C(\NC(=O)c2ccccc2Cl)C(=O)NCCCn2ccnc2)c2ccccc21 | 12.4 |
| CC(C)n1c(C(F)(F)F)nc2cc(C(=O)N3CCC(O)CC3)ccc21 | 17.2 |
| O=C(NC1CCCCC1)C(c1ccc(F)cc1)N(C(=O)c1cccs1)c1ccc2c(c1)OCO2 (stereo not drawn) | -6.28 |
| O=C1CC(c2cc(-c3ccccc3)no2)C1 | -9.96 |
| CC(OC(=O)c1ccc2ccccc2c1)C(=O)N(C)Cc1ccccc1 (stereo not drawn) | -37.7 |
| CC(=O)Nc1ccc(NC(=O)CSc2nnc(C)c(=O)[nH]2)cc1 | 21.9 |
| CCc1cc(CNC(=O)CC2C(=O)NCCN2CC2CCCCC2)on1 (stereo not drawn) | -16.3 |
| Cc1cc2oc(=O)sc2cc1NS(=O)(=O)c1cccc2cccnc12 | 9.71 |
| COc1cc(C2c3c(oc4ccccc4c3=O)C(=O)N2Cc2ccco2)ccc1O (stereo not drawn) | -10.9 |
| C/C(N)=C(/C#N)C(=O)CSc1nnc(-c2ccccc2Br)o1 | 16.6 |
| CC(=O)c1cccc(NC(=O)C(C)OC(=O)CCn2c(C)csc2=O)c1 (stereo not drawn) | 12.1 |

| SMILES | hERG current change (%, negative = inhibition) at 10uM [%] |
| --- | --- |
| O=C(NCC(c1ccco1)N1CCCC1)c1cc2ccccc2s1 (stereo not drawn) | -34.1 |
| COc1ccc(NC(=O)CN(C)S(=O)(=O)c2ccc3c(c2)n(C)c(=O)c(=O)n3C)cc1 | 14 |
| CCC(c1nnc(SCC(=O)Nc2nnc(-c3ccccc3)o2)o1)N(C)C (stereo not drawn) | 14 |
| CCc1cccc2c(C(=O)COC(=O)c3cccc(S(=O)(=O)N(C)C4CCCCC4)c3)c[nH]c12 | 0.794 |
| Cc1c(C(=O)N2CCN(Cc3ccc4c(c3)OCO4)CC2)sc2ncnc(N3CCN(c4ccccc4F)CC3)c12 | -1.46 |
| CCOC(=O)NC(=O)C(=CNc1ccccc1OC)C(=O)NC(=O)OCC | 2.69 |
| COc1ccc(NS(=O)(=O)c2cc(Cl)ccc2Cl)cc1S(=O)(=O)N1CCCCC1 | 0.782 |
| CC1=NN(c2nc(-c3ccc(C)cc3)cs2)C(=O)C1N=Nc1ccc(C(N)=O)cc1 (stereo not drawn) | 28.4 |
| COc1ccc(CNC(=O)c2ccc(Cl)c(S(=O)(=O)N3CCOCC3)c2)cc1OC | -23.2 |
| COc1ccc(CNCc2ccc(C(F)(F)F)cc2)cc1OC.O=C(O)C(=O)O | 6.54 |
| CC(=O)c1cc(C#N)c(Oc2ccc(Cl)cc2Cl)nc1C | 24.2 |
| CCn1nc(NC(=O)c2ccccn2)c2cc3cc(C)ccc3nc21 | 7.78 |
| CCOC(=O)c1c(C)c2c(n1C)CCC/C2=N\O | 4.79 |
| Oc1ccc(Br)cc1-c1n[nH]c(=S)n1Cc1ccccc1 | -0.0951 |
| Cc1cc(Cl)nc(SCC(=O)c2ccccc2)n1 | 3.05 |
| CCC(C(=O)Nc1cccc(OC)c1)n1nc(C)c2c(C)n(-c3ccccc3)nc2c1=O (stereo not drawn) | -7.35 |
| CCOC(=O)c1c(-c2ccc(C)o2)csc1NC(=O)CN1CCOCC1 | 2.47 |
| CCOC(=O)N1CCC(NCCNC(=O)c2ccc(F)cc2)CC1.Cl | -25.2 |
| CCc1c(C)nc(N2CCN(Cc3ccccc3)CC2)[nH]c1=O | 8.65 |
| CC1(C)Oc2ccc3ccc(=O)oc3c2/C(=C/NCCO)C1=O | 5.11 |
| Cc1ccc(C(=O)O/N=C(\N)c2ccc(Br)cc2)cc1C | 20.9 |
| CCOC(=O)N1CCN(C(=O)CCSc2ccccc2)CC1 | -4.37 |

| SMILES | hERG current change (%, negative = inhibition) at 10uM [%] |
| --- | --- |
| CCOc1ccc(CCNC(=O)COC(=O)c2cccc(S(=O)(=O)N3CCOCC3)c2)cc1OCC | -8.57 |
| COc1ccccc1NC(=O)C(C)OC(=O)c1cc2ccccc2[nH]1 (stereo not drawn) | -5.21 |
| Cc1cc(CNC(=O)C2CCC(=O)N(CCc3cccc(F)c3)C2)on1 (stereo not drawn) | 12.3 |
| O=C(NNC(=O)c1cccnc1SCc1cccc([N+](=O)[O-])c1)c1ccccn1 | -3.49 |
| CC(C)Oc1ccc(C(=O)NCC(=O)O)cc1 | 20.8 |
| CCOc1ccc(NC(=NCc2ccc3c(c2)OCO3)SC2CC(=O)N(c3ccccc3)C2=O)cc1 (stereo not drawn) | 10.1 |
| O=C(C1CCCN1S(=O)(=O)c1cccc2nsnc12)N1CCN(c2ccccc2)CC1 (stereo not drawn) | -69.5 |
| C[C@@H]1NC(=O)[C@@]2(C)[C@@H](c3ccccc3)[C@H]3COc4ccccc4[C@@H]3N2C1=O | -9.03 |
| COCC1CCN(C(=O)c2cc(COc3ccccc3SC)on2)C1 (stereo not drawn) | -33.9 |
| CCOc1ccc(CCNC(=O)C2CCN(S(=O)(=O)c3ccc(C)cc3)CC2)cc1OCC | -2.33 |
| CC(C)C(C)NC(=O)CSc1nnc(-c2c[nH]c3ccccc23)o1 (stereo not drawn) | 7.76 |
| CC(=O)c1c(C)[nH]c(C(=O)COC(=O)c2cc(C)oc2C)c1C | -11.5 |
| O=C(NCC(=O)N1CCCC(C(F)(F)F)C1)c1ccco1 (stereo not drawn) | 10.3 |
| COc1ccc(C)cc1NC(=O)CN(C)S(=O)(=O)c1cc(C)ccc1OC | -17.6 |
| CNS(=O)(=O)c1cc(OCC(N)=O)c(C)cc1Cl | 16.8 |
| O=C1CN(C(=O)c2cc3ccccc3o2)c2ccccc2N1 | -9.48 |
| COc1ccccc1NC(=O)C(Cc1ccc(Cl)cc1)c1nn[nH]n1 (stereo not drawn) | 3.7 |
| COC(=O)/C=c1\sc2ncnn2c1=O | 3.63 |
| CNS(=O)(=O)c1ccc(C(=O)NCC(=O)NCCc2ccc3c(c2)OCCO3)cc1 | 12.9 |
| O=C(COc1ccccc1)NCC(=O)N/N=C/C=C/c1ccccc1 | 10.2 |
| Cc1cc(OCC(=O)NCCCN2CCCC2=O)c2c(C)cc(=O)oc2c1 | 16.1 |
| COc1ccc(NC(=S)NCc2ccccc2Cl)c(OC)c1 | 14.5 |

| SMILES | hERG current change (%, negative = inhibition) at 10uM [%] |
| --- | --- |
| CCc1noc(C)c1C(=O)NNC(=O)c1ccc(F)cc1 | 19.2 |
| O=C(CC(=O)N/N=C/c1c(Cl)cccc1Cl)NCc1cccnc1 | 4.38 |
| COc1ccccc1/C=C/C=N/n1c(C)nnc1C | 26.6 |
| O=C(NC(=S)Nc1cccc2[nH]ncc12)c1ccccc1 | 10.8 |
| COCCN=c1scc(-c2ccccc2)n1/N=C/c1c[nH]c2ccccc12 | 18.7 |
| O=C(NC1CCCC1)C(c1ccncc1)N(C(=O)c1csnn1)c1ccc(F)cc1 (stereo not drawn) | 20.3 |
| Cc1ccccc1-c1nn(-c2ccc(F)cc2F)cc1CNC1CC1 | 4.39 |
| Cc1ccc(CC(=O)Nc2ncc([N+](=O)[O-])s2)cc1 | 32.5 |
| CCn1nnnc1SCC(=O)Nc1nc(-c2cccs2)cs1 | 3.04 |
| Cc1nc(C)c(C(=O)O)c(-c2ccsc2)c1C(=O)O | 4.65 |
| COC(=O)/C=C/c1ccc(OC(=O)c2ccncc2)cc1 | 9.12 |
| Oc1ccc(-c2nc(=S)[nH][nH]2)cc1 | 23.5 |
| Cc1c(/C=N/n2cnnc2)c2ccccc2n1CCOc1ccccc1 | -6.78 |
| COc1ccc(N(CC(=O)NC2CCCC2)C(=O)c2ccc(C)s2)c(OC)c1 | -14.5 |
| O=C(c1ccc(Oc2ccc(C(F)(F)F)cc2[N+](=O)[O-])cc1)N1CCOCC1 | -37.9 |
| CCOC(=O)c1cnc2c(ccc3ccccc32)c1NCCCN(C)C | -47 |
| COc1cccc(OCC(=O)Nc2cc(Cl)ccc2Oc2ccccc2)c1 | 15.3 |
| O=C1NC(=O)C(Cc2cccc(Oc3ccccc3)c2)S1 (stereo not drawn) | 18.6 |
| Nc1nc(C(=O)N2CCOCC2)nn1S(=O)(=O)c1ccc(Cl)cc1 | -0.481 |
| O=C(NCC(=O)N1CCc2ccccc2C1)c1ccc(Cl)cc1Cl | -41.2 |
| Cc1nnsc1C(=O)Nc1ccc(S(=O)(=O)N2CCCCC2C)cc1 (stereo not drawn) | 0.606 |
